Measured values published in PMC4336329 (PLoS ONE, 2015).
Screen size: about 310,000 compounds; about 14,000 (4.5%) showed an effect of 50% or more. The effect is printed as a negative number. The list shows a part of the results.

Molecular target: human ether-à-go-go-related gene (hERG) potassium channel (human, UniProt Q12809)
Test: primary screen, population patch clamp on CHO cells stably expressing hERG
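Further: peak tail current of the secondary pulse compared with the same well before compound.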

Chain of human ether-à-go-go-related gene (hERG) potassium channel (Q12809 whole entry, looked up): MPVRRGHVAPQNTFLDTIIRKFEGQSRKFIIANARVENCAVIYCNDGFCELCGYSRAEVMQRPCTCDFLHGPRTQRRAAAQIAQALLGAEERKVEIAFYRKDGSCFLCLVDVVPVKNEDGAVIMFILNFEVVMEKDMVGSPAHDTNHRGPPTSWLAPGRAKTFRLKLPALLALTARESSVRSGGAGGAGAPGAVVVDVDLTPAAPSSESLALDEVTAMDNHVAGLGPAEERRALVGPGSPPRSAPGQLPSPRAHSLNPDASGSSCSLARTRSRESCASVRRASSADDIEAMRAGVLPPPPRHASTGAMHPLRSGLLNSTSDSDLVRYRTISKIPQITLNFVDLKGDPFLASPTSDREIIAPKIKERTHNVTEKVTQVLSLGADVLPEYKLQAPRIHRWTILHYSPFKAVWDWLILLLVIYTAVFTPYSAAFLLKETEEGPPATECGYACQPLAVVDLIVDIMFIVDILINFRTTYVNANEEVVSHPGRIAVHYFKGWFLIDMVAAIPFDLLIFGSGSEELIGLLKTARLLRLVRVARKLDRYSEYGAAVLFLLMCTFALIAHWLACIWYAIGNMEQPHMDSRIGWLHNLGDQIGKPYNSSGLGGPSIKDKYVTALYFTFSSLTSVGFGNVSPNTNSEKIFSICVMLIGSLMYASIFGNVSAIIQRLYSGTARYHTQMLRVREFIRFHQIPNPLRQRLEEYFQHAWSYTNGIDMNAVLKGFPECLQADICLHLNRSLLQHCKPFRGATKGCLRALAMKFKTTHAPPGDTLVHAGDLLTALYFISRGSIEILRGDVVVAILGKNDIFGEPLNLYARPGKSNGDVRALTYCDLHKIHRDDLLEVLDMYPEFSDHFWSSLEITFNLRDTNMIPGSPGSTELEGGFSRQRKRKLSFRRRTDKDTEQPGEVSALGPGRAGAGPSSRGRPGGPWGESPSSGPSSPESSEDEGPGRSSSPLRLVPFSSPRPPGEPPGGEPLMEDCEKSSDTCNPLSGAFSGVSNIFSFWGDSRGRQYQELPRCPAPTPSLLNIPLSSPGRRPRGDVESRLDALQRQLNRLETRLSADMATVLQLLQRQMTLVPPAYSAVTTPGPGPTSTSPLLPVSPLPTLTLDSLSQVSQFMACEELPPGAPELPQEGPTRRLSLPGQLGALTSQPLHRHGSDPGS

SMILES | hERG current change (%, negative = inhibition) at 10uM [%]
COc1ccc(NC(=O)CC(C)(C)C)c([N+](=O)[O-])c1 | -1.18
CSCCCNC(=O)c1ccccc1OC1CCN(S(C)(=O)=O)CC1 | 1.38
COC(=O)c1cn(NC(=O)c2cccc(OC)c2)c(=O)c2ccccc12 | 16.4
COc1ccc(CN=C(C#N)C2=C(O)c3ccccc3C2=O)cc1 | 11.6
O=C(Cc1ccc(Cl)cc1)NCCS(=O)c1ccc(Cl)cc1 (centres unmarked) | -29.6
O=C(/C=C/c1ccccn1)c1cc(Br)ccc1O | -37.3
c1ccc(-c2csc(N3CCCCCC3)n2)cc1 | 7.66
Cc1cc(C)c(NC(=O)COC(=O)Cc2ccsc2)c(C)c1 | 20.8
CCCn1c(NCc2ccccn2)nc2ccccc21 | -16
CCn1c(SCC(=O)NCc2ccccc2)nnc1-c1cccnc1 | 16.8
COc1ccc(NC(=O)CN2CCN(c3ccccc3F)CC2)cc1 | -18.1
COc1ccccc1-c1nnc(SCC(=O)N2CCOCC2)n1-c1ccccc1 | -0.0657
CC1(C)CC(=O)C(C=Nc2ccccc2C(=O)O)=C(O)C1 | 0.8
O=C(c1cccc([N+](=O)[O-])c1)N1CCN(S(=O)(=O)/C=C/c2ccccc2)CC1 | -64.3
Cn1nc(-c2ccc(C(=O)N3CCN(Cc4ccccc4)CC3)cc2)c2ccccc2c1=O | -41.7
O=C(c1ccc(Cn2c(=S)[nH]c3ccc(N4CCOCC4)cc3c2=O)cc1)N1CCN(c2ccc(F)cc2)CC1 | 13.2
CC(C)NC(=O)C(=O)NCCc1ccc(Cl)cc1 | 12
Oc1c(C=C2N=c3ccccc3=N2)sc(=S)n1-c1ccc2ccccc2c1 | 4.51
CC(C)c1ccc(C(=O)N/N=C/c2cccc(Cl)c2Cl)cc1 | 1.54
CC(C)(C)NNC(=S)Nc1ccc(S(=O)(=O)N2CCOCC2)cc1 | 9.07
CN(Cc1ccccc1)C(=O)c1oc(=O)c2ccccc2c1-c1ccccc1 | -13.1
Cc1cc(C)c(OCCN2CCOCC2)c(Cl)c1 | 8.09
CC(C)C(C(=O)Nc1ncn[nH]1)N1C(=O)c2ccccc2C1=O (centres unmarked) | 11.2

SMILES | hERG current change (%, negative = inhibition) at 10uM [%]
CCOc1ccc(C2C(C#N)=C(N)Oc3cc(C)[nH]c(=O)c32)cc1OC (centres unmarked) | -6.65
O=C(COc1ccc(Cl)cc1)NCCC1=CCCCC1 | -10.1
Cc1n[nH]c(C)c1S(=O)(=O)N1CCC(C(=O)Nc2cccc(F)c2)CC1 | -8.28
CCOc1ccc(N2CC(C(=O)NC3CCCC3)CC2=O)cc1 (centres unmarked) | 2.11
CCc1ccc(N(C(=O)c2csnn2)C(C(=O)NC(C)(C)C)c2ccncc2)cc1 (centres unmarked) | -5.68
CC(/C=C/c1cccc([N+](=O)[O-])c1)=N/NC(=O)c1cccnc1 | -22.7
O=c1cc(O)nc(-c2ccc(Cl)cc2)s1 | 13.1
CCN1C(=O)/C(=C\C=C2/C=CC=CN2CC)SC1=S | -5.68
O=C(Oc1cccc([N+](=O)[O-])c1)c1ccc2c(=O)n3c(nc2c1)CCC3 | -47.9
Cc1ccccc1Nc1nc2ccccc2s1 | -7.2
N#CC1=C(SCc2ccccc2)NC(=O)CC1c1ccc(O)cc1 (centres unmarked) | -11
O=C(Cn1cnc2ccccc21)c1ccc(Br)cc1 | -15.1
Cc1ccc(CNC(=O)c2cc3ccccc3oc2=O)cc1 | 0.761
CCCCCCc1c(C)nc(-n2[nH]c(C)c(CCO)c2=O)[nH]c1=O | 9.15
COc1cccc(C(=O)NN2C(=O)C3C4C=CC(O4)C3C2=O)c1 (centres unmarked) | 22.9
O=C(NCc1ccccn1)c1ccc2nc(C3CCCCC3)oc2c1 | 22.5
CCn1nc(CC(=O)Nc2nnc(CC(=O)N3CCCC3)s2)c2ccccc2c1=O | 0.588
Oc1ccc(-c2nc3ccccc3nc2-c2ccccc2)cc1 | -6.06
CCc1cc2ccccc2nc1Cl | 6.29
CCOC(=O)C1=C(c2ccccc2)NC(=S)NC1c1ccc(C)c([N+](=O)[O-])c1 (centres unmarked) | -15.6
CCOc1ccc(OCC)c(Nc2cc(C)nc3ncnn23)c1 | -24.1
Cc1csc(SCC(=O)NC(=O)NCCC(C)C)n1 | -14
CCCN(CCC)C(=O)C1CC(=O)OC12CCOC(C)(C)C2 (centres unmarked) | -1.8

SMILES | hERG current change (%, negative = inhibition) at 10uM [%]
Cc1c(Cc2ccccc2)c(=O)oc2c(C)c(OCC(=O)N[C@@H](Cc3ccccc3)C(=O)O)ccc12 | -2.39
Cc1cc2c3c(c1C)C1(C(=O)N3C(C)(C)CC2C)C(C#N)=C(N)Oc2n[nH]c(C)c21 (centres unmarked) | -11.7
Clc1ccc(-c2nc(/C=N/N3CCOCC3)c3ccccn23)cc1 | -5.18
COC(=O)c1sc2cc(C(F)(F)F)cnc2c1-c1cccnc1 | -14.8
O=[N+]([O-])c1cccc(NC(=S)Nc2nc(-c3ccc(Cl)cc3Cl)cs2)c1 | 13.9
Cc1ccc(-c2cc(N)n[nH]2)cc1 | 9.35
COc1ccccc1NC(=O)C(=O)NCC(c1ccco1)N1CCc2ccccc21 (centres unmarked) | -1.64
CCOc1ccccc1-c1cc(-c2ccc(OC)cc2)nc2c1c(=O)n(C)c(=O)n2C | -5.84
CC(=O)N(c1ccc(Br)cc1)C1C=CS(=O)(=O)C1 (centres unmarked) | -1.24
O=C(NC1CC1)C1CCC(=O)N1C1CCCC1 (centres unmarked) | 6.82
CCOc1ccc(Nc2cc(C)nc(-n3nc(C)cc3C)n2)cc1 | -19.8
O=C(NNc1cccc(Cl)c1)c1cccnc1Cl | 9.19
Cc1noc(/C=C/N(C)C)c1S(=O)(=O)N1CCCC(C(=O)NC2CCCCC2)C1 (centres unmarked) | -5.49
O=c1c2cc(Cl)ccc2oc2nc3n(c(=O)c12)CCCS3 | -12.3
O=C(CNC(=O)c1ccco1)N/N=C/c1ccc(O)cc1O | 19.9
Cc1[nH]nc(NCCO)c1[N+](=O)[O-] | 23.9
O=C1c2ccccc2COc2ccc(O)cc21 | 10.9
CCOc1ccc(C2CC(=O)n3nc(C45CC6CC(CC(C6)C4)C5)nc3S2)cc1OC (centres unmarked) | 2.9
COc1ccc(OC)c(CNC(=O)CCC(=O)N2Cc3cccc(OC)c3Oc3ncccc32)c1 | -15.4
Cc1ccc(Nc2n[nH]c(C)c2[N+](=O)[O-])cc1C | 19.2
C/C(=N\NC(=O)c1ccncc1)c1cccnc1 | 26.7
NC(=O)NC(CC(=O)NCCCc1ccccc1)c1ccccc1Cl (centres unmarked) | 5.09
CC(=O)Nc1ccc(S(=O)(=O)NCC2CCC(C(=O)NCCC(C)C)CC2)cc1 (centres unmarked) | 19.9

SMILES | hERG current change (%, negative = inhibition) at 10uM [%]
C1CCC(NC2=NCCC2)CC1.Cl | -1.01
CC(OC(=O)CNS(=O)(=O)/C=C/c1ccccc1)C(=O)Nc1ccc(S(=O)(=O)N2CCCC2)cc1 (centres unmarked) | -5.21
NC(=O)C1CCN(C(=O)CNC(=O)c2ccccc2)CC1 | -11.3
CC#CCOC(=O)c1c(C)nc2sc3c(c2c1N)CCC(O)C3 (centres unmarked) | -12.5
CCc1cc(=O)oc2cc(OC(C)C(=O)NCCCn3ccnc3)ccc12 (centres unmarked) | 9.41
CCN(CC)c1ccc(C=C2C(=O)OC(c3ccccc3)OC2=O)cc1 (centres unmarked) | 25.3
Cc1ccnc(NC(=O)c2ccoc2C)c1 | -1.08
CCCN1CCN(S(=O)(=O)c2ccc(-n3cnnn3)cc2)CC1 | -28
CCOC(=O)N1CCC(NC(=O)c2sc3nc4n(c(=O)c3c2C)CCCC4)CC1 | -1.15
COc1ccc(-c2c[n+](CC(=O)OC3CC(C)CCC3C(C)C)c3n2CCC3)cc1.[Cl-] (centres unmarked) | -69.3
Cc1cc(C(=O)O)oc(=O)c1 | 21.4
CC(=O)N=c1c(C#N)cc2c(=O)n3ccccc3nc2n1Cc1ccccc1 | -40.2
Cc1cccn2c(=O)c3cc(C(=O)NC4CCCCC4)n(C)c3nc12 | 12.5
Cc1cccc(-n2nc(C)c3c2NC2=C(C(=O)CCC2)C3c2ccccn2)c1 (centres unmarked) | -1.32
COc1ccc(NC(=O)CN(C)C(=O)CNC(=O)c2ccc(C)s2)cc1 | -0.574
Cc1nnc(SCC(=O)Nc2ccc(Cl)cn2)s1 | 10.7
O=[N+]([O-])c1ccc(Cl)c(/C=N/N2CCN(Cc3ccccc3)CC2)c1 | -1.74
CN/S(=N/S(=O)(=O)c1ccccc1)c1ccc(C)cc1 (centres unmarked) | 0.084
COc1ccccc1CN(C)C(=O)C1(c2ccc(Cl)cc2)CC1 | -17.7
O=C(O)C1CCCCC1C(=O)Nc1ccc(S(=O)(=O)N2CCCC2)cc1 (centres unmarked) | 15.5
O=C1C=C(c2ccc(-c3ccccc3)c(F)c2)C[C@@H](c2ccc(Cl)cc2)C1 | 10.6
Cc1[nH]c2ccccc2c1C(=O)COc1ccccc1 | 6.08
Cc1ccccc1N(CC(=O)NCC1CCCO1)C(=O)CCC(=O)Nc1nccs1 (centres unmarked) | 32.5
